# Some of the results follow. Further columns of the screen follow, without active or inactive calls. Numbered stars: 1 amine (or outer) side, 2 acyl side, 3 side chain; on linkers, the order of the positions; unused ones are H or OH. Bridge positions count the residues as written; N and C are the ends. Peptide text beside a SMILES is read from it. X4 = O=C(CCC[*:2])[*:1]
# Key:
# Test in all cases: Primary Screen for Target Class Profiling of Small Molecule Inhibitors of Methyltransferases
# [1] = target: Glycine N-methyltransferase (Homo sapiens) (UniProt Q14749); conditions: purified enzyme, MTase-Glo SAH luminescence; measured here: GNMT inhibition; at 40 µM; stronger effect = lower value
# Procedure, shortened: (§1)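 Each enzyme was assayed with SAM and its substrate. SAH formation detected by MTase-Glo luminescence; single-point 40 uM screen[…].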
# [2] = target: Guanidinoacetate N-methyltransferase (Homo sapiens) (UniProt Q14353); conditions: purified enzyme, MTase-Glo SAH luminescence; measured here: GAMT inhibition; at 40 µM; stronger effect = lower value
# Procedure, shortened: as §1
# [3] = target: Histamine N-methyltransferase (Homo sapiens) (UniProt P50135); conditions: purified enzyme, MTase-Glo SAH luminescence; measured here: HNMT inhibition; at 40 µM; stronger effect = lower value
# Procedure, shortened: as §1
# [4] = target: Nicotinamide N-methyltransferase (Homo sapiens) (UniProt P40261); conditions: purified enzyme, MTase-Glo SAH luminescence; measured here: NNMT inhibition; at 40 µM; stronger effect = lower value
# Procedure, shortened: as §1
# [5] = target: Phenylethanolamine N-methyltransferase (Homo sapiens) (UniProt P11086); conditions: purified enzyme, MTase-Glo SAH luminescence; measured here: PNMT inhibition; at 40 µM; stronger effect = lower value
# Procedure, shortened: as §1
# % is scaled to controls: 0 for no effect and ±100 for the full control effect.
SMILES,"activity change, negative = inhibition [1] [%]","activity change, negative = inhibition [2] [%]","activity change, negative = inhibition [3] [%]","activity change, negative = inhibition [4] [%]","activity change, negative = inhibition [5] [%]"
CCC1c2ccc(C)n2CCN1C(=O)NCc1ccc(F)cc1 (stereo not given),-3.5,2.75,-4.88,-1.32,-7.67
CCC(C)NC(=O)c1ccc2c(=O)n(C)c3nnc(SCc4ccccc4)n3c2c1 (stereo not given),-0.345,2.38,0.549,0.952,-5.4
Cc1ccc(Cn2c(=O)c3ccc(C(=O)NC4CCCC4)cc3n3c(=O)[nH]nc23)cc1,-8.99,1.59,-13.6,-11.8,-10.7
CCCC1c2cccn2CCN1C(=O)Nc1ccccc1CC (stereo not given),2.93,1.52,-22,4.14,6.69
CN1C(=O)c2cc(C(=O)NCCCN3CCCC3)nn2CC1(C)C(=O)NC1CCCCC1 (stereo not given),5.37,0.528,-2,3.79,1.28
CC(C)NC(=O)C(=O)NCc1cccnc1,3.08,-4.21,-1.83,2.41,-5.01
CCCC1c2cccn2CCN1C(=O)Nc1cccc(C(F)(F)F)c1 (stereo not given),-4.68,4.94,-30.5,-6.29,-1.69
CN1CC(c2ccccc2)CC2(CCN(C(=O)c3ccccc3)CC2)C1 (stereo not given),-2.69,-0.508,-12.4,-6.38,-2.8
O=S(=O)(c1ccccc1)c1nnn2c1nc(N1CCN(Cc3ccccc3)CC1)c1ccccc12,3.22,3.54,-0.572,4.07,1.22
CC[C@H](C)[C@@H]1NC(=O)[C@H](Cc2ccc(OC)cc2)NC(=O)CCCSC[C@@H](C(=O)N2CCC[C@H]2C(=O)N[C@@H](CC(C)C)C(=O)NCC(N)=O)NC(=O)[C@H](CC(N)=O)NC(=O)[C@H](CCC(N)=O)NC1=O (Y(Me)IQNCPLG-NH2; linker N-5 via X4),5.69,6.95,7.05,-7.6,0.967
O=C1NC(=O)c2c1c(-c1ccccc1)cc1[nH]c3ccc(O)cc3c21,-57.9,-38.8,-53.4,-40.6,-41.3
CCn1ccnc1CN(C)Cc1cn(-c2ccccc2C)nc1-c1ccc(OC)c(F)c1,0.05,-1.11,-3.84,-7.37,-14.9
CCCN1C(=O)c2cc(C(=O)NCc3ccc(SC)cc3)nn2CC1(C)C(=O)NC1CCCC1 (stereo not given),-0.811,3.01,4.78,-0.481,-0.665
O=C(CCc1nnc2n(CCc3ccccc3)c(=O)c3ccccc3n12)NCc1ccccn1,-3.34,3.75,2.85,5.5,-1.33
CN(C)CCCN1c2ccccc2Sc2ccc(C(F)(F)F)cc21,2.22,11.7,-4.15,-19.4,6.01
COc1ccc(CNC(=O)CC[C@]23CC[C@](C)(O)C[C@H]2C(C)(C)C[C@@H]3NC2CCOCC2)cc1,-3.4,-4.97,-9.28,-8.83,-4.92
c1ccc(-c2nc(C3CC3)no2)c(OC2CCNC2)c1 (stereo not given),0.004,0.628,-3.59,-4.56,0.443
O=C1NCc2ccccc2CC12CCN(Cc1ccsc1)C2 (stereo not given),-12.6,-9.05,-8.08,-25.2,-11.9
O=C(/C=C\c1ccc(O)cc1)N[C@@H](Cc1ccc(O)cc1)C(=O)O,-0.487,-1.48,13,-11.5,4.11
O=C(CCc1ccc2c(c1)OCO2)N[C@H](c1ccccn1)C1CC(O)C1 (stereo not given in full),-0.405,-2.72,0.278,-3.83,-2.8
C/C(=C/CO)CC[C@@H]1[C@@]2(C)CCC[C@](C)(C(=O)O)C2CC[C@@]1(C)O (stereo not given in full),6.21,5.85,10.2,-6.2,2.83
CCCn1c(=O)c2ccc(C(=O)NC3CCCC3)cc2n2c(=O)n(Cc3c(F)cccc3Cl)nc12,0.016,3.17,-0.394,-4.65,-7.68
Cc1ccc(Cl)cc1N1C(=O)c2cc3occc3n2CC1(C)C(=O)NC1CCCCCCC1 (stereo not given),-4.47,3.21,-6.11,-5.35,-4.03
CCOC(=O)c1cc(C#N)c(N2CCC(C(=O)NS(=O)(=O)Cc3ccccc3)CC2)nc1C,-2.12,-4.77,10.7,-12.9,1.06
COC1(c2ccccc2)CCN(C(=O)C2CCCN(C(=O)N(C)C)C2)CC1 (stereo not given),-4.02,-10.3,0.195,-7.82,-3.66
CCCn1c(=O)c2cc(F)ccc2n2c(SCC(=O)Nc3ccc4c(c3)OCO4)nnc12,-4.21,0,9.87,-0.565,2.8
C=CCc1ccccc1OCCN(C)Cc1cc2ccc(F)cc2[nH]c1=O,-8.25,0.293,-7.59,-12.9,-5.87
COC(=O)c1ncn2c1C(=O)N(c1cccc(OC)c1)C(C)(C(=O)NCc1ccccc1OC)C2 (stereo not given),1.83,0.77,1.05,2.81,3.2
CCCn1c(=O)c2cc(F)ccc2n2c(SCC(N)=O)nnc12,-1.35,0,10.6,2.7,2.61
O=C(O)c1cccnc1CN1CCCC(c2nc(-c3ccccc3)no2)C1 (stereo not given),-7.26,-5.67,-2.73,-7.77,10.1
